Test results as given in patent publication US20200079850A1.
Blank lines part the entries; values can stand above or below the binder they belong to.

Key:
[1] = target: cynomolgus LAG3 expressed on the cell surface (293T or CHO cells) (cynomolgus monkey); test: flow cytometry, 293T cells expressing cyno LAG3
[2] = target: human LAG3-Fc (R&D Systems #2319-L3) (human) (UniProt P18627); test: SPR (Biacore), antibody captured by anti-Flag, LAG3-Fc as analyte, 25 C
[3] = target: recombinant human LAG3 protein (rhLAG3), HIS-tagged (ACRO) or biotinylated (R&D Cat #2319-C3) (human) (UniProt P18627); test: flow cytometry competition, rhLAG3 binding to Daudi cells; competitor MHCII

B2: SRP1448-D09 (scFv)
chain: EVQLLESGGGLVQPGGSLRLSCAASGFTFTDSSMSWVRQAPGKGLEWVGVITGNSGTTDYADSVKGRFTISRDNSKNTLYLQMNSLRAEDTAVYYCAKVYEGGVRPYSDYWGQGTLVTVSSGGGGSGGGGSGGGGSEIVLTQSPGTLSLSPGERATLSCRASQSVSSSYLAWYQQKPGQAPRLLIYGASSRATGIPDRFSGSGSGTDFTLTISRLEPEDFAVYYCQQDTAGPPTFGQGTKVEIKAAGSDQ[no letters for human IgG1 Fc with changes]GSGDYKDDDDKGSG
- Kd [1]: 1.6 nM

B4: SRP1449-D05 (scFv, from a related filing, part only)
scFv-Fc: QVQLVESGGGVVQPGRSLRLSCAASGFTFRSFGMHWVRQAPGKGLEWVAVIWYDGSVKYYADSVKGRFTISRDNSKNTLYLQMNSLRAEDTAVYYCAREWADVSWDAGLDVWGQGTTVTVSSGGGGSGGGGSGGGGS[no letters for about 100 residues]KFGPGTKVDIKAAGSDQ[no letters for human IgG1 Fc with changes]
- Kd [2]: 1.36 nM
- koff [2]: 0.000627 s⁻¹
- kon [2]: 460000 M⁻¹ s⁻¹
- IC50 [3]: 2.3 nM

The next lines start with the values.

- Kd [1]: 0.7 nM
B1: SRP1558-F01 (scFv)
chain: EVQLLESGGGLVQPGGSLRLSCAASGFTFPDSSMSWVRQAPGKGLEWVGVITDNSGNTDYADSVKGRFTISRDNSKNTLYLQMNSLRAEDTAVYYCAKVFEGGVRPYSDYWGQGTLVTVSSGGGGSGGGGSGGGGSEIVLTQSPGTLSLSPGERATLSCRASQSVSSGNPAWYQQKPGQAPRLLIYGASSRATGIPDRFSGSGSGTDFTLTISRLEPEDFAVYYCQQYTAGPPTFGQGTKVEIKAAGSDQ[no letters for human IgG1 Fc with changes]GSGDYKDDDDKGSG

- Kd [1]: 0.3 nM
B3: SRP1558-A06 (scFv)
chain: EVQLLESGGGLVQPGGSLRLSCAASGFTFSESTMSWVRQAPGKGLEWVGFITSDSGTTDYADSVKGRFTISRDNSKNTLYLQMNSLRAEDTAVYYCAKVFEGGVRPFSDYWGQGTLVTVSSGGGGSGGGGSGGGGSEIVLTQSPGTLSLSPGERATLSCRASQSVSSNPLAWYQQKPGQAPRLLIYGASSRATGIPDRFSGSGSGTDFTLTISRLEPEDFAVYYCQQYMAGPPTFGQGTKVEIKAAGSDQ[no letters for human IgG1 Fc with changes]GSGDYKDDDDKGSG
